Measured values: patent US20180021277A1, “ANTI-VIRULENCE COMPOSITIONS AND METHODS” (priority 2012, published 2018)

Columns and labels:
[1] = system: MRSA strain USA300; test: microbe, parasite or virus in culture; settings: for hemolysis at 1 µg/mL / hemolysis at 10 µg/mL: Staphylococcus aureus, Erythrocyte, in Oryctolagus cuniculus; for hemolysis at 1 µg/mL / hemolysis at 10 µg/mL / Hemolysis: DMSO control = 100
[2] = system: MRSA strain USA300; test: microbe, parasite or virus in culture; settings: for activity at 1 µg/mL / activity at 10 µg/mL: Staphylococcus aureus, read-out: Growth; for Growth: DMSO control = 100

Structure (SMILES): O=C(COc1cccc(F)c1)c1ccc(O)cc1O [4a-1]
- hemolysis at 1 µg/mL ([1]; 1 μg/mL compound): 81 ± 4.4%
- hemolysis at 10 µg/mL ([1]; 10 μg/mL compound): 10.1 ± 0.5%
- activity at 1 µg/mL [2]: 98.7%
- activity at 10 µg/mL [2]: 99.4%

Structure (SMILES): CCCCCCc1cc(C(=O)COc2ccc(I)cc2)c(O)cc1O [4f-8]
- Hemolysis ([1]; 10 μg/mL compound): 25.3 ± 1.9%
- Growth ([2]; 10 μg/mL compound): 100.2%

Structure (SMILES): CCc1cc(C(=O)COc2ccc(C(C)C)cc2)c(O)cc1O [4b-19]
- hemolysis at 1 µg/mL ([1]; 1 μg/mL compound): 55.5 ± 9.8%
- hemolysis at 10 µg/mL ([1]; 10 μg/mL compound): -1.3 ± 0.2%
- activity at 1 µg/mL [2]: 95.4%
- activity at 10 µg/mL [2]: 2.1%

Structure (SMILES): O=C(COc1ccccc1Cl)c1c(O)cc(O)cc1O [4c-2]
- hemolysis at 1 µg/mL ([1]; 1 μg/mL compound): 101 ± 17%
- hemolysis at 10 µg/mL ([1]; 10 μg/mL compound): 1.8 ± 0.3%
- activity at 1 µg/mL [2]: 107%
- activity at 10 µg/mL [2]: 70.1%

Structure (SMILES): Cc1ccc(OCC(=O)c2c(O)cc(O)cc2O)cc1 [4c-11]
- hemolysis at 1 µg/mL ([1]; 1 μg/mL compound): 99.9 ± 14.1%
- hemolysis at 10 µg/mL ([1]; 10 μg/mL compound): 10.8 ± 1.4%
- activity at 1 µg/mL [2]: 111%
- activity at 10 µg/mL [2]: 108%

Structure (SMILES): O=C(COc1cccc(Cl)c1)c1ccc(O)cc1O [4a-3]
- hemolysis at 1 µg/mL ([1]; 1 μg/mL compound): 83.2 ± 4.7%
- hemolysis at 10 µg/mL ([1]; 10 μg/mL compound): 1.2 ± 0.2%
- activity at 1 µg/mL [2]: 107%
- activity at 10 µg/mL [2]: 79.5%

Structure (SMILES): CCCc1cc(C(=O)COc2ccccc2Cl)c(O)cc1O [4e-2]
- inhibition of rabbit blood hemolysis compared to diflunisal ([1]; 1 μg/mL): greater inhibition of rabbit blood hemolysis
- hemolysis at 1 µg/mL ([1]; 1 μg/mL compound): 20.3 ± 1.9%
- hemolysis at 10 µg/mL ([1]; 10 μg/mL compound): 1.3 ± 0.1%
- effect on the growth of the bacteria ([2]; 1 μg/mL): without affecting the growth of the bacteria
- activity at 1 µg/mL [2]: 102%
- activity at 10 µg/mL [2]: 3.2%

Structure (SMILES): CCCCCCc1cc(C(=O)COc2ccc([N+](=O)[O-])cc2)c(O)cc1O [4f-22]
- Hemolysis ([1]; 10 μg/mL compound): 28.0 ± 2.4%
- Growth ([2]; 10 μg/mL compound): 105.9%

Structure (SMILES): Cc1ccc(OCC(=O)c2cc(C)c(O)cc2O)cc1 [4d-11]
- hemolysis at 1 µg/mL ([1]; 1 μg/mL compound): 248 ± 41.9%
- hemolysis at 10 µg/mL ([1]; 10 μg/mL compound): 14.3 ± 2.8%
- activity at 1 µg/mL [2]: 103%
- activity at 10 µg/mL [2]: 84.2%

Structure (SMILES): CCCc1cc(C(=O)COc2ccc(C(=O)O)cc2)c(O)cc1O [4e-25]
- Hemolysis ([1]; 1 μg/mL compound): 66.1 ± 4.7%
- Hemolysis ([1]; 10 μg/mL compound): 8.3 ± 0.5%
- Growth ([2]; 1 μg/mL compound): 102.8%
- Growth ([2]; 10 μg/mL compound): 102.1%

Structure (SMILES): Cc1cc(C(=O)COc2cc(F)cc(F)c2)c(O)cc1O [4d-15]
- hemolysis at 1 µg/mL ([1]; 1 μg/mL compound): 149 ± 19.2%
- hemolysis at 10 µg/mL ([1]; 10 μg/mL compound): 12.5 ± 3.2%
- activity at 1 µg/mL [2]: 101%
- activity at 10 µg/mL [2]: 102%

Structure (SMILES): CC(C)c1ccc(OCC(=O)c2ccc(O)cc2O)cc1 [4a-19]
- hemolysis at 1 µg/mL ([1]; 1 μg/mL compound): 80.4 ± 10.1%
- hemolysis at 10 µg/mL ([1]; 10 μg/mL compound): -2.3%
- activity at 1 µg/mL [2]: 104%
- activity at 10 µg/mL [2]: 8.3%

Structure (SMILES): Cc1cc(C(=O)COc2cccc(Cl)c2)c(O)cc1O [4d-3]
- hemolysis at 1 µg/mL ([1]; 1 μg/mL compound): 204 ± 45.4%
- hemolysis at 10 µg/mL ([1]; 10 μg/mL compound): 8.4 ± 1.4%
- activity at 1 µg/mL [2]: 102%
- activity at 10 µg/mL [2]: 103%

Structure (SMILES): O=C(COc1ccc(Br)cc1)c1ccc(O)cc1O [4a-7]
- hemolysis at 1 µg/mL ([1]; 1 μg/mL compound): 97 ± 3.9%
- hemolysis at 10 µg/mL ([1]; 10 μg/mL compound): 5.7 ± 1.1%
- activity at 1 µg/mL [2]: 98.7%
- activity at 10 µg/mL [2]: 68.9%

Structure (SMILES): CCCCCCc1cc(C(=O)COc2ccccc2C(=O)OC)c(O)cc1O [4f-27]
- Hemolysis ([1]; 1 μg/mL compound): 72.6 ± 7.0%
- Hemolysis ([1]; 10 μg/mL compound): 7.2 ± 0.7%
- Growth ([2]; 1 μg/mL compound): 99.3%
- Growth ([2]; 10 μg/mL compound): 92.7%

Structure (SMILES): COC(=O)c1ccccc1OCC(=O)c1ccc(O)cc1O [4a-27]
- hemolysis at 10 µg/mL ([1]; 10 μg/mL compound): 58.9 ± 5.1%
- activity at 10 µg/mL [2]: 102%

Structure (SMILES): COc1ccc(OCC(=O)c2c(O)cc(O)cc2O)cc1 [4c-26]
- Hemolysis ([1]; 10 μg/mL compound): 70.5 ± 7.1%
- Growth ([2]; 10 μg/mL compound): 106.5%

Structure (SMILES): CCCc1cc(C(=O)COc2ccc(Br)cc2)c(O)cc1O [4e-7]
- hemolysis at 10 µg/mL ([1]; 10 μg/mL compound): 74.3 ± 13.7%
- activity at 10 µg/mL [2]: 97.8%

Structure (SMILES): COc1ccc(OCC(=O)c2ccc(O)cc2O)cc1 [4a-26]
- hemolysis at 10 µg/mL ([1]; 10 μg/mL compound): 48.2 ± 2.6%
- activity at 10 µg/mL [2]: 104%
